1 compound from the supplement of paper PMC13380429 can be followed below.

What all share (assay): drug sensitivity score (DSS) for viability; higher = more toxic; extreme values may be limits of the assay
Holding throughout (conditions): 72 h

Test [1] relates to Caco-2.
Test [2] concerns Calu-3.
The test system of test [3] is HepG2.
Test [4] deals with U2OS.
The subject of test [5] is Vero E6.

Turning to `Cc1nc2c(-c3cnc(N)nc3)nc(N3CCOCC3)nc2n1C(C)C` [SB-2343], the drug sensitivity score in test [1] came out at 15.2; in test [2] it was 15.4; in test [3] it was 12.8; in test [4], 11.5; in test [5] it was 11.1.
